Some of the results follow. The full chains were built here from the parent and the listed change. Inactive controls read about 0.05.
B1: TEV protease; numbered along this chain (parent)
chain: MGESLFKGPRDYNPISSSICHLTNESDGHTTSLYGIGFGPFIITNKHLFRRNNGTLVVQSLHGVFKVKDTTTLQQHLVDGRDMIIIRMPKDFPPFPQKLKFREPQREERICLVTTNFQTKSMSSMVSDTSCTFPSGDGIFWKHWIQTKDGQCGSPLVSTRDGFIVGIHSASNFTNTNNYFTSVPKNFMELLTNQEAQQWVSGWRLNADSVLWGGHKVFMVKPEEPFQPVKEATQL

Variants of: B1
Assay: raw area under fraction-flipped curve 0-4 h after induction (AUC4h, not background-subtracted), DNA-recorder readout of cleavage of the substrate (dimensionless); higher = more cleavage of the substrate by the protease variant
Conditions: temperature: 34 °C; time window: 0-4 h after rhamnose induction
Description: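 In vivo DNA recorder in E. coli TOP10(DE3) ΔrhaA at 34 °C. Each TEVp single-site mutant (parent TEVp 0) is paired with a single-site variant of the 7-mer TEVs (canonical ENLYFQ|S). The substrate sits between flexible linkers in a Bxb1-sfGFP-TEVs-SsrA fusion, so cleavage stabilises Bxb1 and speeds flipping of a recombination array, read by NGS. The value is the raw area under the fraction-flipped curve over 0-4 h after rhamnose induction (AUC4h), with ≥20 reads per time point. It is not background-subtracted; inactive controls average about 0.047.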
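Also: Bxb1 expression induced with 0.2% (w/v) L-rhamnose at OD600 near 0.5, cultures sampled hourly, flipped fraction per protease–substrate barcode pair counted by paired-end Illumina sequencing.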

Row | Variant | area with substrate ENAYFQS | area with substrate ENCYFQS | area with substrate ENDYFQS | area with substrate ENEYFQS | area with substrate ENFYFQS | area with substrate ENGYFQS | area with substrate ENHYFQS | area with substrate ENIYFQS | area with substrate ENKYFQS | area with substrate ENNYFQS | area with substrate ENPYFQS | area with substrate ENQYFQS | area with substrate ENTYFQS | area with substrate ENVYFQS | area with substrate ENWYFQS | area with substrate ENYYFQS | area with substrate ENRYFQS | area with substrate ENSYFQS | area with substrate ENMYFQS
1 | MGESLFKGPRDYNPISSSICHLTNESDGHTTSNYGIGFGPFIITNKHLFRRNNGTLVVQSLHGVFKVKDTTTLQQHLVDGRDMIIIRMPKDFPPFPQKLKFREPQREERICLVTTNFQTKSMSSMVSDTSCTFPSGDGIFWKHWIQTKDGQCGSPLVSTRDGFIVGIHSASNFTNTNNYFTSVPKNFMELLTNQEAQQWVSGWRLNADSVLWGGHKVFMVKPEEPFQPVKEATQL [L33N] | 0.0581 | 0.0618 | 0.0731 | 0.0538 | 0.0536 | 0.0693 | 0.0643 | 0.0971 | 0.0768 | 0.0528 | 0.0443 | 0.0546 | 0.063 | 0.0774 | 0.0645 | 0.0629 | – | – | –
2 | MGESLFKGPRDYNPISSSICHLTNESDGHTTSLYGIGFGGFIITNKHLFRRNNGTLVVQSLHGVFKVKDTTTLQQHLVDGRDMIIIRMPKDFPPFPQKLKFREPQREERICLVTTNFQTKSMSSMVSDTSCTFPSGDGIFWKHWIQTKDGQCGSPLVSTRDGFIVGIHSASNFTNTNNYFTSVPKNFMELLTNQEAQQWVSGWRLNADSVLWGGHKVFMVKPEEPFQPVKEATQL [P40G] | 0.0592 | 0.0498 | 0.0449 | 0.0684 | – | – | 0.0602 | – | – | 0.059 | 0.0566 | 0.0606 | 0.0579 | 0.0686 | – | – | 0.0601 | 0.0677 | –
3 | MGESLFKGPRDYNPISSSICHLTNESDGHTTSLYGIGFGHFIITNKHLFRRNNGTLVVQSLHGVFKVKDTTTLQQHLVDGRDMIIIRMPKDFPPFPQKLKFREPQREERICLVTTNFQTKSMSSMVSDTSCTFPSGDGIFWKHWIQTKDGQCGSPLVSTRDGFIVGIHSASNFTNTNNYFTSVPKNFMELLTNQEAQQWVSGWRLNADSVLWGGHKVFMVKPEEPFQPVKEATQL [P40H] | 0.0847 | 0.0595 | 0.0708 | 0.0573 | 0.0647 | 0.0615 | 0.0536 | – | 0.0569 | 0.0387 | 0.0591 | 0.0604 | 0.0715 | 0.076 | 0.0453 | – | – | 0.069 | 0.0813
4 | MGESLFKGPRDYNPISSSICHLTNESDGHTTSLYGIGFGDFIITNKHLFRRNNGTLVVQSLHGVFKVKDTTTLQQHLVDGRDMIIIRMPKDFPPFPQKLKFREPQREERICLVTTNFQTKSMSSMVSDTSCTFPSGDGIFWKHWIQTKDGQCGSPLVSTRDGFIVGIHSASNFTNTNNYFTSVPKNFMELLTNQEAQQWVSGWRLNADSVLWGGHKVFMVKPEEPFQPVKEATQL [P40D] | 0.0712 | – | 0.0511 | 0.0648 | 0.0563 | 0.0626 | 0.0479 | – | 0.0629 | – | – | 0.0893 | – | – | 0.054 | 0.0518 | 0.0722 | – | 0.0834
5 | MGESLFKGPRDYNPISSSICHLTNESDGHTTSLYGIGFGKFIITNKHLFRRNNGTLVVQSLHGVFKVKDTTTLQQHLVDGRDMIIIRMPKDFPPFPQKLKFREPQREERICLVTTNFQTKSMSSMVSDTSCTFPSGDGIFWKHWIQTKDGQCGSPLVSTRDGFIVGIHSASNFTNTNNYFTSVPKNFMELLTNQEAQQWVSGWRLNADSVLWGGHKVFMVKPEEPFQPVKEATQL [P40K] | 0.0669 | – | 0.0633 | 0.0575 | 0.0626 | 0.0546 | 0.0645 | 0.0914 | – | 0.0556 | 0.0553 | 0.0631 | 0.072 | 0.0794 | 0.0338 | 0.0385 | – | 0.0424 | 0.0781
6 | MGESLFKGPRDYNPISSSICHLTNESDGHTTSLYGIGFGCFIITNKHLFRRNNGTLVVQSLHGVFKVKDTTTLQQHLVDGRDMIIIRMPKDFPPFPQKLKFREPQREERICLVTTNFQTKSMSSMVSDTSCTFPSGDGIFWKHWIQTKDGQCGSPLVSTRDGFIVGIHSASNFTNTNNYFTSVPKNFMELLTNQEAQQWVSGWRLNADSVLWGGHKVFMVKPEEPFQPVKEATQL [P40C] | 0.0651 | 0.0629 | 0.0764 | 0.0582 | 0.074 | 0.0532 | 0.0452 | 0.102 | 0.0654 | 0.0495 | 0.0374 | 0.0619 | 0.0536 | 0.0796 | – | – | 0.0603 | 0.0563 | 0.0755
7 | MGESLFKGPRDYNPISSSICHLTNESDGHTTSLYGIGFGIFIITNKHLFRRNNGTLVVQSLHGVFKVKDTTTLQQHLVDGRDMIIIRMPKDFPPFPQKLKFREPQREERICLVTTNFQTKSMSSMVSDTSCTFPSGDGIFWKHWIQTKDGQCGSPLVSTRDGFIVGIHSASNFTNTNNYFTSVPKNFMELLTNQEAQQWVSGWRLNADSVLWGGHKVFMVKPEEPFQPVKEATQL [P40I] | 0.0519 | – | 0.0607 | 0.0535 | 0.0642 | – | 0.0668 | 0.0432 | 0.0594 | 0.0321 | 0.059 | 0.0619 | 0.0537 | 0.0554 | – | 0.0791 | – | 0.06 | 0.0811
8 | MGESLFKGPRDYNPISSSICHLTNESDGHTTSLYGIGFGFFIITNKHLFRRNNGTLVVQSLHGVFKVKDTTTLQQHLVDGRDMIIIRMPKDFPPFPQKLKFREPQREERICLVTTNFQTKSMSSMVSDTSCTFPSGDGIFWKHWIQTKDGQCGSPLVSTRDGFIVGIHSASNFTNTNNYFTSVPKNFMELLTNQEAQQWVSGWRLNADSVLWGGHKVFMVKPEEPFQPVKEATQL [P40F] | 0.051 | 0.0572 | 0.0599 | 0.0678 | 0.049 | 0.0587 | 0.0491 | 0.102 | 0.048 | 0.0503 | 0.0554 | 0.058 | 0.0614 | 0.0689 | – | – | 0.0592 | 0.0544 | 0.0585
9 | MGESLFKGPRDYNPISSSICHLTNESDGHTTSLYGIGFAPFIITNKHLFRRNNGTLVVQSLHGVFKVKDTTTLQQHLVDGRDMIIIRMPKDFPPFPQKLKFREPQREERICLVTTNFQTKSMSSMVSDTSCTFPSGDGIFWKHWIQTKDGQCGSPLVSTRDGFIVGIHSASNFTNTNNYFTSVPKNFMELLTNQEAQQWVSGWRLNADSVLWGGHKVFMVKPEEPFQPVKEATQL [G39A] | 0.0509 | 0.0394 | 0.0529 | 0.0441 | – | 0.0573 | 0.0386 | 0.0526 | 0.0531 | 0.019 | 0.04 | 0.0433 | 0.0352 | 0.0486 | – | – | – | 0.0434 | –

Source: the supplement of paper PMC12217912
